BRET signal with Mab alone, c-Met activation model, inhibition of the HGF induced activation BRET signal and inhibition of the HGF induced c-Met dimerization BRET signal data for one molecule are collected here from patent publication WO2010064089A1.

Experiment [1] addresses C-Met-Rluc expressed with a mutated form of Gab1 fused to YFP in a CHO stable cell line (c-Met activation BRET model) (R. reniformis), P08581. As to the kind of experiment: cell-based or functional assay.
Experiment [2] deals with C-Met-Rluc and C-Met-K1100A-YFP co-expressed in a CHO stable cell line (c-Met dimerization BRET model) (R. reniformis), P08581. As to the kind of experiment: cell-based or functional assay.

B1: [224G11][TH7 chim] (antibody)
heavy: EVQLQQSGPELVKPGASVKISCKTSGYIFTAYTMHWVRQSLGESLDWIGGIKPNNGLANYNQKFKGKATLTVDKSSSTAYMDLRSLTSEDSAVYYCARSEITTEFDYWGQGTALTVSSASTKGPSVFPLAPSSKSTSGGTAALGCLVKDYFPEPVTVSWNSGALTSGVHTFPAVLQSSGLYSLSSVVTVPSSSLGTQTYICNVNHKPSNTKVDKRVEPKSCDCH[human IgG1 Fc not listed]
light: DIVLTQSPASLAVSLGQRATISCRASESVDSYANSFMHWYQQKPGQPPKLLIYRASNLESGIPARFSGSGSRTDFTLTINPVEADDVATYYCQQSKEDPLTFGSGTKLEMKRTVAAPSVFIFPPSDEQLKSGTASVVCLLNNFYPREAKVQWKVDNALQSGNSQESVTEQDSKDSTYSLSSTLTLSKADYEKHKVYACEVTHQGLSSPVTKSFNRGEC
As for B1, in experiment [1], the BRET signal with Mab alone, c-Met activation model was -6.9% and the inhibition of the HGF induced activation BRET signal is 73.8%. In addition, the inhibition of the HGF induced c-Met dimerization BRET signal in experiment [2] was 64.4%.
